The values below come from a collection of fitness landscapes (doi:10.1126/science.1257360).

B1: PhoQ; a variant is named by its letters at X, in order, P23837 (parent)
chain: MKKLLRLFFPLSLRVRFLLATAAVVLVLSLAYGMVALIGYSVSFDKTTFRLLRGESNLFYTLAKWENNKLHVELPENIDKQSPTMTLIYDENGQLLWAQRDVPWLMKMIQPDWLKSNGFHEIEADVNDTSLLLSGDHSIQQQLQEVREDDDDAEMTHSVAVNVYPATSRMPKLTIVVVDTIPVELKSSYMVWSWFIYVLSANLLLVIPLLWVAAWWSLRPIEALAKEVRELEEHNRELLNPATTRELTSLVRNLNRLLKSERERYDKYRTTLTDLTHSLKTPLXXLQXXLRSLRSEKMSVSDAEPVMLEQISRISQQIGYYLHRASMRGGTLLSRELHPVAPLLDNLTSALNKVYQRKGVNISLDISPEISFVGEQNDFVEVMGNVLDNACKYCLEFVEISARQTDEHLYIVVEDDGPGIPLSKREVIFDRGQRVDTLRPGQGVGLAVAREITEQYEGKIVAGESMLGGARMEVIFGRQHSAPKDE

The list shows a part of the results. Where only a bound is given, the exact number is not on record here.

Variants of B1 are the subject of this assay. Description: enrichment ratio after two sorts for PhoP signalling (ratio (wild type AVST 3.29)); higher = more functional. Particulars: with PhoP (E. coli).
For the variant YFKQ, the enrichment ratio was at most 0.25.

As for TPIK, the enrichment ratio was at most 0.25.

Regarding FFFF, the enrichment ratio was at most 0.25.

For MSET, the enrichment ratio was at most 0.25.

As for KRIA, the enrichment ratio is at most 0.25.

Consider FVPG, for which the enrichment ratio was at most 0.25.

Consider IKVC, for which the enrichment ratio is at most 0.25.

With FNYF, the enrichment ratio was at most 0.25.

Turning to HECM, the enrichment ratio was found to be 24.

For HHPD, the enrichment ratio was at most 0.25.

Regarding DARG, the enrichment ratio is at most 0.25.

Consider HLVI, for which the enrichment ratio was at most 0.25.

MSWQ: the enrichment ratio stood at 14.5.

In the case of YMFQ, the enrichment ratio was at most 0.25.

In the case of VQCE, the enrichment ratio was at most 0.25.

Turning to LDLA, the enrichment ratio is at most 0.25.

For NFMT, the enrichment ratio is at most 0.25.

TITG: the enrichment ratio was 8.82.

Consider IFSD, for which the enrichment ratio was at most 0.25.

Turning to RRLE, the enrichment ratio was at most 0.25.

Turning to LAKM, the enrichment ratio is at most 0.25.

Take KENY: the enrichment ratio is at most 0.25.

With SKIP, the enrichment ratio is at most 0.25.

As for AQPM, the enrichment ratio was at most 0.25.

Regarding IEQT, the enrichment ratio is at most 0.25.

With LPEM, the enrichment ratio was at most 0.25.

As to VISN, the enrichment ratio was at most 0.25.

Regarding TTLA, the enrichment ratio is 16.9.

As for NYNA, the enrichment ratio was at most 0.25.

For the variant QSHE, the enrichment ratio is at most 0.25.

Take TQDI: the enrichment ratio is at most 0.25.

As to LRYA, the enrichment ratio is at most 0.25.

Turning to WNRG, the enrichment ratio was at most 0.25.

As to KDLM, the enrichment ratio is at most 0.25.

DWSM: the enrichment ratio was at most 0.25.

KVSC: the enrichment ratio was at most 0.25.

As for ITIR, the enrichment ratio was at most 0.25.

For MVYD, the enrichment ratio is at most 0.25.

KHEL: the enrichment ratio is at most 0.25.

With FMWE, the enrichment ratio was at most 0.25.

Regarding EHPI, the enrichment ratio was at most 0.25.

In the case of TVVY, the enrichment ratio was at most 0.25.

With CSTV, the enrichment ratio is at most 0.25.

For the variant TAIQ, the enrichment ratio is at most 0.25.

NMFA: the enrichment ratio was at most 0.25.

For the variant TVRF, the enrichment ratio was at most 0.25.

With RGSS, the enrichment ratio was at most 0.25.

On to GDLL, for which the enrichment ratio amounted to 1.77.

Take DWSI: the enrichment ratio is at most 0.25.

TYSG: the enrichment ratio came out at 7.27.

With YETW, the enrichment ratio was at most 0.25.

As to DRQF, the enrichment ratio was at most 0.25.

Take IPKF: the enrichment ratio is at most 0.25.

Turning to FISR, the enrichment ratio is at most 0.25.

As for KARS, the enrichment ratio is at most 0.25.

On to DTHQ, for which the enrichment ratio is at most 0.25.

Consider WESF, for which the enrichment ratio is at most 0.25.

MQVY: the enrichment ratio turned out to be 1.21.

Take GWYI: the enrichment ratio was at most 0.25.

Regarding KGTW, the enrichment ratio is at most 0.25.

Take FCKW: the enrichment ratio was at most 0.25.

As to RMRM, the enrichment ratio is at most 0.25.

As to SESE, the enrichment ratio is 24.9.

WEER: the enrichment ratio is at most 0.25.

Regarding QPFW, the enrichment ratio is at most 0.25.

Turning to FQES, the enrichment ratio is at most 0.25.

Consider MNDS, for which the enrichment ratio was at most 0.25.

WPAL: the enrichment ratio was at most 0.25.

Turning to TDHA, the enrichment ratio is at most 0.25.

Consider HFLE, for which the enrichment ratio is at most 0.25.

Regarding MENS, the enrichment ratio is at most 0.25.

For the variant SQLD, the enrichment ratio came out at 9.99.

As to SLAS, the enrichment ratio turned out to be 5.06.

As for PETD, the enrichment ratio is at most 0.25.

For the variant FKFN, the enrichment ratio is at most 0.25.

As to REWE, the enrichment ratio was at most 0.25.

Take PGED: the enrichment ratio was at most 0.25.

Consider YGYC, for which the enrichment ratio was at most 0.25.

Take TTYM: the enrichment ratio came out at 10.1.

For the variant KAFH, the enrichment ratio is at most 0.25.

Regarding LHYH, the enrichment ratio was at most 0.25.

With RSAF, the enrichment ratio is at most 0.25.

As to DIQP, the enrichment ratio was at most 0.25.

For CNES, the enrichment ratio was at most 0.25.

For LKLQ, the enrichment ratio was at most 0.25.

With FTHM, the enrichment ratio is at most 0.25.

For the variant NAKP, the enrichment ratio was at most 0.25.

With EDFI, the enrichment ratio was at most 0.25.

With WMTT, the enrichment ratio is at most 0.25.

NMYL: the enrichment ratio was at most 0.25.

For the variant EEWS, the enrichment ratio is at most 0.25.

Regarding WYYD, the enrichment ratio was at most 0.25.

For the variant REWR, the enrichment ratio is at most 0.25.

As to PGSN, the enrichment ratio was at most 0.25.

In the case of VHLK, the enrichment ratio is at most 0.25.

As to WAHP, the enrichment ratio is at most 0.25.

Regarding ERTT, the enrichment ratio was at most 0.25.

With IRCN, the enrichment ratio is at most 0.25.

For the variant YRCK, the enrichment ratio was at most 0.25.

In the case of TISE, the enrichment ratio was found to be 24.4.

As for NRLK, the enrichment ratio was at most 0.25.

Take VSAH: the enrichment ratio was at most 0.25.

In the case of LGMG, the enrichment ratio is at most 0.25.

On to RAGM, for which the enrichment ratio is at most 0.25.

As for YRYR, the enrichment ratio was at most 0.25.

As to LQGI, the enrichment ratio was at most 0.25.

As for TCIF, the enrichment ratio is at most 0.25.

Turning to AYWE, the enrichment ratio was at most 0.25.

As to IDWD, the enrichment ratio was at most 0.25.

For the variant YVFV, the enrichment ratio was at most 0.25.

As to NKEE, the enrichment ratio was at most 0.25.

QRST: the enrichment ratio was at most 0.25.

As for TATQ, the enrichment ratio turned out to be 5.5.

In the case of VQDK, the enrichment ratio was at most 0.25.

For the variant WCFS, the enrichment ratio was at most 0.25.

With KPLH, the enrichment ratio was at most 0.25.

On to HHCN, for which the enrichment ratio was at most 0.25.

As for RHYG, the enrichment ratio was at most 0.25.

EIKH: the enrichment ratio is at most 0.25.

For the variant FCAG, the enrichment ratio was at most 0.25.

Regarding AHRP, the enrichment ratio was at most 0.25.

Consider MNIV, for which the enrichment ratio is at most 0.25.

For the variant HSCN, the enrichment ratio is at most 0.25.

HDMT: the enrichment ratio is at most 0.25.

As to YSDG, the enrichment ratio was at most 0.25.

Regarding SAQH, the enrichment ratio was at most 0.25.

Consider MKDS, for which the enrichment ratio was at most 0.25.

With VWWG, the enrichment ratio is at most 0.25.

For the variant KRNC, the enrichment ratio is at most 0.25.

On to ALKK, for which the enrichment ratio is at most 0.25.

In the case of FCHF, the enrichment ratio was at most 0.25.

Turning to MMTE, the enrichment ratio was at most 0.25.

For VNHH, the enrichment ratio is at most 0.25.

VTVY: the enrichment ratio is at most 0.25.

With ELAY, the enrichment ratio was at most 0.25.

In the case of MRWI, the enrichment ratio is at most 0.25.

Consider NVDI, for which the enrichment ratio is at most 0.25.

For LPKP, the enrichment ratio is at most 0.25.

For the variant ILEL, the enrichment ratio was at most 0.25.

Turning to ARLS, the enrichment ratio was at most 0.25.

WREL: the enrichment ratio was at most 0.25.

Consider PDSM, for which the enrichment ratio is at most 0.25.

For NFDQ, the enrichment ratio is at most 0.25.

Take LVIG: the enrichment ratio was at most 0.25.

For QCRG, the enrichment ratio is at most 0.25.

As to HWWQ, the enrichment ratio was at most 0.25.

As to GFRG, the enrichment ratio is at most 0.25.

In the case of QASK, the enrichment ratio is at most 0.25.

Turning to PYNS, the enrichment ratio is at most 0.25.

Turning to HAFG, the enrichment ratio is at most 0.25.

Take MHRF: the enrichment ratio was at most 0.25.

ELFY: the enrichment ratio was at most 0.25.

Turning to WIIV, the enrichment ratio is at most 0.25.

Consider HDII, for which the enrichment ratio is at most 0.25.

For the variant SGMK, the enrichment ratio is 0.508.

In the case of MNHK, the enrichment ratio is at most 0.25.

Take ETKY: the enrichment ratio is at most 0.25.

In the case of IPCH, the enrichment ratio was at most 0.25.

Take DTKN: the enrichment ratio was at most 0.25.

As for NLHN, the enrichment ratio was at most 0.25.

For YRTA, the enrichment ratio is at most 0.25.

On to YWWE, for which the enrichment ratio was at most 0.25.

With KPWD, the enrichment ratio was at most 0.25.

Turning to LTWQ, the enrichment ratio is at most 0.25.

Take RGRD: the enrichment ratio is at most 0.25.

Turning to THQT, the enrichment ratio was at most 0.25.

Consider PCGT, for which the enrichment ratio is at most 0.25.

Consider NSTY, for which the enrichment ratio was at most 0.25.

As to ITVK, the enrichment ratio was at most 0.25.

As for QCIG, the enrichment ratio is at most 0.25.

As for PQSH, the enrichment ratio is at most 0.25.

Regarding KYCG, the enrichment ratio was at most 0.25.

VLDK: the enrichment ratio is at most 0.25.

On to FNKA, for which the enrichment ratio is at most 0.25.

Consider YRKK, for which the enrichment ratio was at most 0.25.

For the variant AIQH, the enrichment ratio was at most 0.25.

In the case of PNWA, the enrichment ratio is at most 0.25.

In the case of LERK, the enrichment ratio was at most 0.25.

As to QTIN, the enrichment ratio was at most 0.25.

For GIRI, the enrichment ratio was at most 0.25.

As for QMYL, the enrichment ratio worked out at 9.47.

Consider TAWY, for which the enrichment ratio is 6.15.

As to QHLS, the enrichment ratio is at most 0.25.

ICHV: the enrichment ratio is at most 0.25.

Regarding IGTR, the enrichment ratio is at most 0.25.

Consider STYF, for which the enrichment ratio is at most 0.25.

Take FFMT: the enrichment ratio was at most 0.25.

In the case of SGFK, the enrichment ratio was at most 0.25.

Take HTAD: the enrichment ratio is at most 0.25.

As for RVGW, the enrichment ratio is at most 0.25.

As to PRRS, the enrichment ratio is at most 0.25.

As to QDSK, the enrichment ratio is at most 0.25.

Take VYCV: the enrichment ratio is at most 0.25.

Take QCTQ: the enrichment ratio was at most 0.25.

VSKD: the enrichment ratio was at most 0.25.
